The record followed here is the supplement of paper PMC8674133.

Recombinant human monoclonal antibodies (heavy:light variable regions). ELISA EC50 on the named antigen, from 10 µg/ml down; IC50 / IC90 against spike pseudovirus on 293T-ACE2 cells, 48 h; lower = stronger. Calls: IC50 above 1,000 ng/ml = non-neutralizing; EC50 above 2,000 ng/ml = non-binder. The source prints 1000 for neutralization that was not reached; it is given as >1000 ng/ml. A few antibodies were first reported in earlier work of the same group.

Experiment [1] concerns the target SARS-CoV-2 Wuhan-Hu-1 spike pseudovirus. Briefly: pseudovirus neutralization IC50; higher = weaker neutralization. Here is the method:
(§1)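 Single-round luciferase reporter pseudovirus mixed with antibody dilutions and put on 293T-ACE2 cells for 48 h; signal relative to no-antibody wells, four-parameter fit.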

Experiment [2] shares this target. Briefly: pseudovirus neutralization IC90; higher = weaker neutralization. Here is the method: as §1
Experiment [3] concerns the target SARS-CoV-2 Wuhan-Hu-1 spike receptor-binding domain. Nature of the experiment: ELISA binding EC50; higher = weaker binding; ELISA of recombinant human antibody on coated antigen, from 10 µg/ml in fourfold dilutions; four-parameter fit. (In an ELISA, binding on a coated surface is turned into a signal by an enzyme label.)

B1: C1205 (protein)
chain 1: QVQLQESGPGLVKPSGTLSLTCAVSGGSISSRNWWSWVRQPPGKGLEWIGEIYHSGSTSYNPSLKSRVTISVDKSKNQFSLYLNSVTAADTAVYYCARSSGLLDYWGQGTLVTVSS
chain 2: DIQMTQSPSSLSASVGDRVTITCRASQGISNSLAWYQQKPGKAPKLLLYAASTLESGVPSRFSGSGSGTDYTLTISSLQPEDFATYYCQQYYSTRTFGQGTKVEIK
Consider B1, for which the “pseudovirus neutralization IC50” value in experiment [1] was 0.0107 µg/mL. Further, the “pseudovirus neutralization IC90” value in experiment [2] was 0.0507 µg/mL. Besides, the “ELISA binding EC50” value in experiment [3] came out at 0.00249 µg/mL.

B2: C1451 (protein)
chain 1: QVQLVQSGAEMKKPGASVKVSCKASGYTFINYGITWVRQAPGQGLEWMGWISAFNGNTNYAQNLQGRVTMSTDTSTSTAYMVLRSLRSDDTAVYYCARVGVGYCTSTSCYNQPSFDIWGQGTMVTVSS
chain 2: QSVLTQPPSTSGTPGQRVTVSCSGSSSNIGNNAVNWYQQLPGTAPKLLIYSNDQRPSGVPDRFSGSKSGTSAFLAISGLQSEDEADYYCAAWDDSLNGHVVFGGGTKLTVL
In the case of B2, the “pseudovirus neutralization IC50” value in experiment [1] came to 0.8 µg/mL. Also, in experiment [2], the “pseudovirus neutralization IC90” value was more than 1 µg/mL. Besides, the “ELISA binding EC50” value in experiment [3] came to 0.0265 µg/mL.

B3: C1450 (protein)
chain 1: EVQLLESGGGLVQPGGSLRLSCAASGFTLSSYVMTWVRQAPGKGLEWVSVISGSSGSTYYADSVKGRFTISRDNSKNTLFLQMNSLSAEDTAVYYCAKTRTGWYVGFDYWGQGTLVTVSS
chain 2: NFMLTQPHSVSESPGKTVTISCTRSSGSIASHYIQWYQQRPGSSPTTVIYEDNQRPSGVPDRFSGSIDSSSNSASLTISGLKTEDEADYYCQSYDSSKHWVFGGGTKLTVL
For B3, the “pseudovirus neutralization IC50” value in experiment [1] stood at 0.112 µg/mL. For the same molecule, the “pseudovirus neutralization IC90” value in experiment [2] was more than 1 µg/mL. Further, the “ELISA binding EC50” value in experiment [3] is 0.00194 µg/mL.

B4: C1272 (protein)
chain 1: QVQLQESGPGLVKPSETLSLTCTVSGGSIRSYYWSWIRQPPGKGLEWVGSIYYSGSTNYNPSLKSRVSVSVDTSKNQFSLKLTSVTAADTAVYYCARGPPGFDSWGQGTLVTVSS
chain 2: DIQMTQSPSSLSASVGDRVTITCRASQGISNSLAWYQQKPGKAPKLLLYAASTLESGVPSRFSGSGSGTDFTLTISSLQPEDFATYYCQQYYSTTWTFGQGTKVEIK
On to B4, for which, in experiment [1], the “pseudovirus neutralization IC50” value turned out to be 0.00168 µg/mL. Also, the “pseudovirus neutralization IC90” value in experiment [2] was 0.0377 µg/mL. In experiment [3], the “ELISA binding EC50” value was found to be 0.00194 µg/mL.

B5: C1265 (protein)
chain 1: QLQLQESGPGLVKPSETLSLTCTVSGGSISSTNNYWGWIRQSPGTGLEWIGSIYYSGSTYYNPSLKSRVTISVDTSKNQFSLRLSSVTAADTAVYYCARLLGAVFGWGQGTLVTVSS
chain 2: DIQMTQSPSSLSASVGDRVTITCRASQGISNSLAWYQQIPGKAPKLLLYAASTLESGVPSRFSGTASGTVYTLIISSLQPEDFATYYCQQYYSTPPLTFGGGTKVEIK
For the molecule B5, in experiment [1], the “pseudovirus neutralization IC50” value worked out at 0.00607 µg/mL. Besides, in experiment [2], the “pseudovirus neutralization IC90” value amounted to 0.0416 µg/mL. Besides, in experiment [3], the “ELISA binding EC50” value was found to be 0.00238 µg/mL.

B6: C2481 (protein)
chain 1: EVQLVESGGGLVQPGGSLRLSCAASEILVSRNYMNWVRQAPGKGLEWVSIIYSGGSTFYADSVKGRFTISRDSSKNTLYLQMNSLRTEDTAVYYCARSYGDFYMDYWGQGTLVTVSS
chain 2: DIQMTQSPSSLSASVGDRVTITCRATQAISNSLAWYQQKPGKAPKLLLYAASRLESGVPSRFSGSGSGTDYTLTISSLQPEDFATYFCQQYYTTPSITFGQGTRLEIK
For B6, in experiment [1], the “pseudovirus neutralization IC50” value was found to be 0.0066 µg/mL. The “pseudovirus neutralization IC90” value in experiment [2] came to 0.0332 µg/mL. Besides, the “ELISA binding EC50” value in experiment [3] worked out at 0.00131 µg/mL.

B7: C1266 (protein)
chain 1: EVQLVESGGGLIQPGGSLRLSCAASGITVSSNYMNWVRQAPGKGLQWVSVIYSGGSTFYADSVKGRFTISRDSSKNTLYLQMNSLRPEDTAVYYCARDLQVYGMDVWGQGTTVTVSS
chain 2: DIQLTQSPSFLSASVGDRVTITCRASQGISSYLAWYQQKPGKAPKLLIYAASTLQSGVPSRFSGSGSGTEFTLTISSLQPEDFATYYCQQPNTYSISFGQGTRLEIK
B7: in experiment [1], the “pseudovirus neutralization IC50” value was 0.0116 µg/mL. The “pseudovirus neutralization IC90” value in experiment [2] came to 0.0532 µg/mL. The “ELISA binding EC50” value in experiment [3] was determined as 0.00208 µg/mL.

B8: C1269 (protein)
chain 1: QVQLVQSGAEVKKPGASVKVSCKASGYTFTSQYMHWVRQAPGQGLEWMGIINPSAGSTSYAQKFQGRLTMTSDTSTSTVYMDLSSLRSEDTAVYYCARDIVFVPAAMGLDYWGQGTLVTVSS
chain 2: IQMTQSPSSLSASVGDRVTITCRASQGIRNDLGWYQQKPGKAPKLLIYAASSLQSGVPSRFSGSGSGTDFTLTISSLQPEDFATYYCLQDYNYPWTFGQGTKVEIK
Regarding B8, the “pseudovirus neutralization IC50” value in experiment [1] was more than 1 µg/mL. In addition, the “pseudovirus neutralization IC90” value in experiment [2] was more than 1 µg/mL. In addition, the “ELISA binding EC50” value in experiment [3] stood at 0.00183 µg/mL.
